According to paper PMC12040169 (PLOS Biology, 2025):
Some of the results follow.

What follows are molecules tested on T1, C. trachomatis L2/434/Bu expressing GFP (CTL2-GFP). Settings: total inclusion area; 28.5 h, 10 µM; inhibitor.
T1 construct: L2/434/Bu GFP intracellular growth in HeLa cells
Set-up: species or system HeLa; C. trachomatis total inclusion area by high-content imaging, normalised to DMSO
Method in brief: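 Host cell viability was gauged from Hoechst-stained nuclei counts, while chlamydial growth was taken from total inclusion area and inclusion number per well. Cells were fixed and imaged by high-content microscopy once bulk GFP and resorufin fluorescence had been measured.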

| SMILES | % of control remaining |
| --- | --- |
| NNC(=O)c1ccc(Oc2ccc(C(=O)NN)cc2)cc1 [CBK260995] | 96.3315 |
| COc1cc(C(C)NC2CCN(c3nc(C)cs3)CC2)ccn1 (centres unmarked) [CBK304247] | 71.3394 |
| COC(=O)c1c(NC(=O)C(=O)NCc2ccccn2)sc2c1CCCC2 [CBK269505] | 49.077 |
| CN(c1ccccc1)C1CCN(c2nc3c(cnn3C)c(=O)[nH]2)CC1 [CBK305215] | 46.0068 |
| O=C(COc1ccccc1)Nc1ccccc1Sc1ncnc2sc3c(c12)CCCC3 [CBK266171] | 125.49 |
| CCOc1sc(=S)n(C)c1C(C)=O [CBK019515] | 63.3063 |
| CC(C)c1cc(C(=O)N[C@@H]2CCOC[C@H]2Oc2ccc(CO)cc2)on1 [CBK306554] | 44.2405 |
| CC(=O)Nc1cc(C(=O)NCCc2ccccc2)ccc1S(=O)(=O)c1ccc(C)cc1 [CBK071771] | 99.5172 |
| C[C@@H]1CN(Cc2ccco2)CCN1C(=O)c1nccc2ccccc12 [CBK285489] | 92.6064 |
| O=c1c(Cl)c(O)c2ccccc2n1Cc1ccccc1 [CBK291164] | 102.371 |
| COc1ccc(CC(=O)NC2CC(C)(C)Cc3c2cnn3C)cc1 (centres unmarked) [CBK282886] | 124.18 |
| CC(C)OC(=O)N1CCC(N(C)Cc2ccc(-c3ccc(S(C)(=O)=O)cc3)nc2)CC1 [CBK165261T] | 97.5863 |
| CCc1nc2ccc(C(=O)Nc3cccc(OC)c3)cn2c1N(C)Cc1cccs1 [CBK145522] | 99.338 |
| O=C1NC/C=C/CC2(CCN(Cc3c[nH]c4ccccc34)CC2)C(=O)NCCOc2ccccc21 [CBK292085] | 120.359 |
| CCOC(=O)C1(C)C=C(Nc2cccc(C)c2)C(=O)N1c1ccccc1 (centres unmarked) [CBK263757] | 111.973 |
| CCc1cc(S(=O)(=O)NC2CC(C)(C)NC(C)(C)C2)ccc1OC [CBK270097] | 78.0686 |
| O=S(=O)(Nc1cccc(-c2nnn[nH]2)c1)c1cc(Br)c(Cl)s1 [CBK160374] | 105.092 |
| Cc1ccc(S(=O)(=O)NC(=O)Nc2cccc(NC(=O)NS(=O)(=O)c3ccc(C)cc3)n2)cc1 [CBK296102] | 100.304 |
| O=C1NCC2(CCN(C(=O)c3ccco3)CC2)Oc2ccccc21 [CBK282919] | 75.4952 |
| Cn1cc(CCN2CCC(C(=O)NC(=O)Nc3ccccc3)CC2)c2ccccc21 [CBK034867] | 80.942 |
| Cc1ccc2nsnc2c1NC(=O)Cc1cccc2ccccc12 [CBK266279] | 136.15 |
| N/C(=N/OC(=O)c1ccc2nsnc2c1)c1ncon1 [CBK263847] | 53.1618 |
| C=CCNC(=O)C1CCCN(c2nc3ccccc3n2C)C1 (centres unmarked) [CBK282872] | 87.5031 |
| O=C(Nc1cccc(N2CCNCC2)c1)c1ccccc1 [CBK028255T] | 113.002 |
| c1nc(Nc2ccc3[nH]ccc3c2)cc(-c2ccc(N3CCOCC3)cc2)n1 [CBK090851] | 57.3587 |
| Cc1cc(OCC(=O)N2CCC(C(=O)Nc3ccccc3)CC2)no1 [CBK305067] | 88.5527 |
| CCc1noc(C)c1C(=O)N1CCN(C(C#N)C2CCCCC2)CC1 (centres unmarked) [CBK304916] | 81.6603 |

| SMILES | % of control remaining |
| --- | --- |
| CCCCNC(=O)Nc1ncc(-c2ccc(C#N)cc2)nc1-c1ccc(C(=O)N2CCOCC2)cc1 [CBK105766] | 79.7981 |
| Cc1ccc(NC(=O)C(=O)NCCCN2CCOCC2)cc1C [CBK264836] | 99.236 |
| CC(=O)Nc1ccc(S(=O)(=O)N2CCN(c3ccc(C(F)(F)F)cc3[N+](=O)[O-])CC2)cc1 [CBK264293] | 91.751 |
| CC(=O)Nc1cccc(NC(=O)N2CCCCC2CO)c1 (centres unmarked) [CBK156181] | 102.502 |
| COc1cc(OC)nc(C(NC(=O)C2CCN(C(=O)c3ccno3)CC2)c2ccc(Cl)cc2)n1 (centres unmarked) [CBK060169] | 100.616 |
| O=C1CC(SCCc2nc3ccccc3[nH]2)C(=O)N1c1cccc(F)c1 (centres unmarked) [CBK266671] | 114.483 |
| O=C(COC(=O)C1CCN(S(=O)(=O)c2cccc3cccnc23)CC1)c1ccc([N+](=O)[O-])cc1 [CBK264412] | 110.902 |
| O=C(O)c1cc(S(=O)(=O)Nc2ccc3nc(N4CCCC4)sc3c2)ccc1Br [CBK296710] | 75.4487 |
| Cc1cc2c(cc3c(=O)n(CC(=O)NC4CC4)nc(C)n32)s1 [CBK284067] | 90.2458 |
| Cc1cccc(-c2ncc(C(=O)Nc3nccs3)cc2-c2ccco2)c1 [CBK037427] | 88.0499 |
| COc1ccc(-c2[nH]c3ncccc3c2CN2CCSCC2)cc1 [CBK285338] | 87.1858 |
| COC(=O)c1ccccc1Oc1nc(OC)cc(OC)n1 [CBK092217] | 104.837 |
| CC(C)Cn1cncc1CN1C(=O)CC2(CCCC2)CC1=O [CBK306600] | 95.0665 |
| CCCC(=O)Nc1nc(-c2ccc(C)cc2)c(C)s1 [CBK287763] | 80.6832 |
| CCC(C(=O)NCCCN1CCOCC1)c1ccccc1 (centres unmarked) [CBK265103] | 124.535 |
| CC(C)(C)OC(=O)N1CCC(CNS(=O)(=O)c2cc(Cl)sc2Cl)CC1 [CBK086018] | 97.2021 |
| Cc1cc(C(=O)NCCCC2CCOC2)c2cccc(Cl)c2n1 (centres unmarked) [CBK282550] | 94.7845 |
| CC1CCCC(C)N1C(=O)C1CCCCC1C(=O)O (centres unmarked) [CBK026624] | 100.839 |
| COc1ccc(-c2cc(CC3(NC(C)=O)COC3)no2)cc1 [CBK289428] | 95.1683 |
| COc1cc(C(C)=O)ccc1OCC(O)Cn1c(=O)n(-c2ccccc2)c(=O)c2ccccc21 (centres unmarked) [CBK296677] | 69.6641 |
| O=C(CCC1CCCC1)n1ccn(CCc2cccs2)c1=O [CBK106611] | 91.3299 |
| CNS(=O)(=O)c1cccc(C(C)NC(=O)N2CCC(COC)CC2)c1 (centres unmarked) [CBK304087] | 40.5314 |
| CC(C)n1cnc2ccc(-c3noc(-c4nccc5ccccc45)n3)cc21 [CBK288617] | 83.7005 |
| S=c1[nH]nc(CSc2nc3ccccc3[nH]2)n1-c1ccccc1 [CBK267133] | 88.4153 |
| C=CCn1c(Cc2csc(NC(=O)c3ccc(C)c(F)c3)n2)n[nH]c1=S [CBK295307] | 119.859 |
| CC(C)(Oc1cccc2ccccc12)C(=O)O [CBK012409] | 108.887 |
| CN(C)CCCNC(=O)CCc1ccccc1 [CBK263806] | 108.569 |

| SMILES | % of control remaining |
| --- | --- |
| CC(C)CNc1nc(-c2cc(C(F)(F)F)cc(C(F)(F)F)c2)cnc1N [CBK063708] | 93.2314 |
| COc1ccc2c(c1)C(NC(=O)C1CCCN(C)C1)CC(C)(C)O2 (centres unmarked) [CBK307631] | 66.1606 |
| O=C1NC2=NOCCC2=CN1[C@H]1C[C@@H](O)[C@@H](CO)O1 [CBK201192] | 92.238 |
| O=C(NCc1ccco1)[C@H]1CN2CCC1C[C@@H]2Cn1cc(CO)nn1 (some centres unmarked) [CBK289080] | 93.5677 |
| CC(c1ccccc1)N1CCn2c(nc3cc(NC(=O)COc4ccccc4)ccc32)C1 (centres unmarked) [CBK268033] | 97.7084 |
| COc1ccc(C)cc1S(=O)(=O)N(CC(=O)O)c1ccc(C)c(Cl)c1 [CBK269655] | 76.9572 |
| COc1cc(C(=O)N2CCC3(CC2)CC(=O)c2ccc(-c4ccc(NS(C)(=O)=O)cc4)cc2O3)cc(OC)c1C [CBK170163] | 103.151 |
| CCc1ccc(CN2CCC(Oc3ccccc3F)(C(=O)O)CC2)nc1 [CBK307528] | 74.3514 |
| CN(C)CCN(C)c1ccc(/C=C/c2ccccc2)cn1 [CBK037026] | 68.8382 |
| O=C(O)c1cc(-c2ccco2)nc2ccccc12 [CBK027882] | 101.526 |
| O=C(c1cccnc1)N1CCCC2(CCN(C(=O)c3ccoc3)C2)C1 (centres unmarked) [CBK131640] | 88.4712 |
| CC(C)Nc1ccc(S(=O)(=O)N(Cc2ccccc2)Cc2ccccc2)cn1 [CBK267307] | 93.031 |
| Cc1noc(C)c1C(=O)N1CCN(Cc2ccccc2)CC1 [CBK200173] | 92.169 |
| CC(=O)Oc1cccc(N2C(=O)c3ccc(Oc4cccc(N)c4)cc3C2=O)c1 [CBK261099] | 97.8314 |
| CN(C)S(=O)(=O)N(CC(=O)NCc1ccccc1Cl)c1ccccc1 [CBK269081] | 81.7959 |
| CSCCN(C)C(=O)c1nnn(Cc2ccc(F)cc2F)c1C [CBK306468] | 74.7278 |
| O=C(N[C@@H](Cn1cc(Cl)c(=O)[nH]c1=O)C(=O)O)C1CCC1 [CBK289659] | 126.666 |
| FC(F)(F)c1cccc(OCCN2CCOCC2)n1 [CBK113289] | 49.1954 |
| O=C(NCCn1cncn1)C1(c2ccccc2F)CC1 [CBK283087] | 89.1609 |
| OC1CCN(CC(O)Cn2c3ccccc3c3ccccc32)CC1 (centres unmarked) [CBK305784] | 22.1339 |
| COC(=O)[C@@H]1CN(C(=O)c2ccc(OC)cc2)CCN1C(C)=O [CBK289578] | 87.1655 |
| O=[N+]([O-])c1cnc(NCCCn2ccnc2)c([N+](=O)[O-])c1 [CBK262511] | 82.6379 |
| CCc1c(C)sc(NC(=O)C2C3C=CC(C3)C2C(=O)O)c1C(N)=O (centres unmarked) [CBK265433] | 91.1642 |
| CCOC(=O)C(CNC(=O)c1c(CC)noc1C)Cc1ccccc1 (centres unmarked) [CBK305961] | 71.0361 |
| CS(=O)(=O)Nc1cccc(-c2nnn[nH]2)c1 [CBK062150] | 99.3529 |
| O=C(CSc1nnc(-c2ccncc2)n1-c1ccccc1)N/N=C/c1ccco1 [CBK262828] | 109.162 |
